From publication PMC10977726 (PLOS ONE, 2024)

Test: in vitro
Settings: human, serum, 100% human serum (Sigma H1388), 0.2 mM (~0.7 mg/mL) DCP, 37°C, acetonitrile/0.1% formic acid extraction, LC-MS, UV 220 nm peak area normalized to 0 h (100%), three independent experiments
Protocol: The DCPs were incubated in human serum (Sigma, cat# H1388) at a concentration of 0.2 mM (~ 0.7 mg/mL) at 37°C for 24 h. All samples (time 0 and 24 h) were flash frozen in liquid nitrogen at—20°C until sample preparation. To extract DCPs, 50 μL of sample was added to 100 μL of ice cold acetonitrile with 0.1% formic acid and mixed thoroughly with a Vortex mixer. The samples were then centrifuged at 14000 × rpm at 4°C for 30 minutes. 80 μL of the supernatant from each sample was diluted into 80 μL of water containing 0.1% formic acid and analyzed using LC-MS. From the HPLC UV trace (at 220 nm), the DCP peak area of the 24 h incubation sample was integrated and normalized to the DCP peak area of the 0 h incubation sample (set as 100%).

`CC[C@H](C)[C@@H]1NC(=O)[C@H](CCCCN)NC(=O)[C@H](CO)NC(=O)[C@@H]2CSSC[C@@H]3NC(=O)[C@H](Cc4ccc(O)cc4)NC(=O)CNC(=O)[C@H](Cc4ccccc4)NC(=O)[C@H](CCC(N)=O)NC(=O)[C@H](CO)NC(=O)[C@H](CSSC[C@H](NC(=O)[C@H](CCC(=O)O)NC(=O)CNC(=O)[C@@H](N)C(C)C)C(=O)N[C@@H](C(C)C)C(=O)N[C@@H](CCCNC(=N)N)C(=O)NCC(=O)N[C@@H](CCCNC(=N)N)C(=O)N2)NC(=O)[C@H](CSSC[C@@H](C(=O)NCC(=O)O)NC(=O)[C@H](Cc2ccc(O)cc2)NC(=O)[C@H](CCCCN)NC(=O)[C@@H]2CCCN2C(=O)CNC(=O)[C@H](CCCCN)NC(=O)CNC3=O)NC(=O)[C@H](CO)NC1=O` [Ig-AMP-1] (H-VGECVRGRCSKISCCSQFGYCGKGPKYCG-OH; disulfide 4-15, 9-21, 14-28) gave a remaining at 24 h of 100%.

Where a SMILES comes first, the peptide text is derived from it. Bridges are numbered along the chain shown (N, C = ends).
